From patent publication US20150276755A1 (AGENCY FOR SCIENCE TECHNOLOGY AND RESEARCH, published 2015)

Target: p53 tumor suppressor protein, wild-type, full-length (UniProt P04637)
Experiment: cell-based or functional assay

Sequence of UniProt P04637 (P04637 whole entry): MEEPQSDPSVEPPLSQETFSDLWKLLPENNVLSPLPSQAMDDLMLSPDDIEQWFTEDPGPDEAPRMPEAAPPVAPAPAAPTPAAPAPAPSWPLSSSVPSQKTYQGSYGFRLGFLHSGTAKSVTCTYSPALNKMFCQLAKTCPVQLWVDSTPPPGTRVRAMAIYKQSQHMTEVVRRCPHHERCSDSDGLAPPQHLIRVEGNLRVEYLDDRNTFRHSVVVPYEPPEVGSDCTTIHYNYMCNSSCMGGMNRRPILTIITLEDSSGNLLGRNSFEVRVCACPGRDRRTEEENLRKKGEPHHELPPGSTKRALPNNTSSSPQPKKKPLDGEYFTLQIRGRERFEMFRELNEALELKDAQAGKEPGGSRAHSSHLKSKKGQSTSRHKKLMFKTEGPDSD

| p53 transactivation reporter activity in p53/MDM2-null DKO cells, no antagonist [%] | Binder |
| --- | --- |
| ~90 | HA-tagged HDM2 M62A (enzyme, not shown: small tags and cut ends) not shown |
| ~90 | HA-tagged HDM2 Q24R (enzyme, not shown: small tags and cut ends) not shown |
